In patent US20150246136A1 (Bayer, published 2015):

T1: C4.4a (Homo sapiens, UniProt O95274 31-326)
T1 sequence (looked up): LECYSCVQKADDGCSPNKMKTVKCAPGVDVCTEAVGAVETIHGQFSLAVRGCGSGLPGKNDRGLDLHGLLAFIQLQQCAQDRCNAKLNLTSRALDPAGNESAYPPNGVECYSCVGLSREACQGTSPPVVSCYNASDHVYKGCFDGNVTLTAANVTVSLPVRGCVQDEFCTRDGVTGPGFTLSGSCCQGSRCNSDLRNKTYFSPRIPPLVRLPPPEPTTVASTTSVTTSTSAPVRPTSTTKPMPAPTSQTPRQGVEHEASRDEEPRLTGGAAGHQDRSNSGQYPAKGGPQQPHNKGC


Biological target: T1, C4.4a
Assay: cell-based or functional assay

| IC50 (nM) A549: C4.4a [nM] | Binder |
| --- | --- |
| 0.04 | Example 388 Diastereomer 2 (antibody, human IgG1, lambda, linker-toxophore on lysine NH) heavy: EVQLLESGGGLVQPGGSLRLSCAASGFTFSNAWMSWVRQAPGKGLEWVSYISSSGSTIYYADSVKGRFTISRDNSKNTLYLQMNSLRAEDTAVYYCAREGLWAFDYWGQGTLVTVSS[in this place human IgG1 constant region] light: ESVLTQPPSVSGAPGQRVTISCTGSSSNIGAGYVVHWYQQLPGTAPKLLIYDNNKRPSGVPDRFSGSKSGTSASLAISGLRSEDEADYYCAAWDDRLNGPVFGGGTKLTVLGQPKAAPSVTLFPPSSEELQANKATLVCLISDFYPGAVTVAWKADSSPVKAGVETTTPSKQSNNKYAASSYLSLTPEQWKSHRSYSCQVTHEGSTVEKTVAPTECS |
| 0.04 | Example 385 (antibody, human IgG1, lambda, linker-toxophore on cysteine S) heavy: EVQLLESGGGLVQPGGSLRLSCAASGFTFSNAWMSWVRQAPGKGLEWVSYISSSGSTIYYADSVKGRFTISRDNSKNTLYLQMNSLRAEDTAVYYCAREGLWAFDYWGQGTLVTVSS[in this place human IgG1 constant region] light: ESVLTQPPSVSGAPGQRVTISCTGSSSNIGAGYVVHWYQQLPGTAPKLLIYDNNKRPSGVPDRFSGSKSGTSASLAISGLRSEDEADYYCAAWDDRLNGPVFGGGTKLTVLGQPKAAPSVTLFPPSSEELQANKATLVCLISDFYPGAVTVAWKADSSPVKAGVETTTPSKQSNNKYAASSYLSLTPEQWKSHRSYSCQVTHEGSTVEKTVAPTECS |
| 0.02 | Example 386 (antibody, human IgG1, lambda, linker-toxophore on lysine NH) heavy: EVQLLESGGGLVQPGGSLRLSCAASGFTFSNAWMSWVRQAPGKGLEWVSYISSSGSTIYYADSVKGRFTISRDNSKNTLYLQMNSLRAEDTAVYYCAREGLWAFDYWGQGTLVTVSS[in this place human IgG1 constant region] light: ESVLTQPPSVSGAPGQRVTISCTGSSSNIGAGYVVHWYQQLPGTAPKLLIYDNNKRPSGVPDRFSGSKSGTSASLAISGLRSEDEADYYCAAWDDRLNGPVFGGGTKLTVLGQPKAAPSVTLFPPSSEELQANKATLVCLISDFYPGAVTVAWKADSSPVKAGVETTTPSKQSNNKYAASSYLSLTPEQWKSHRSYSCQVTHEGSTVEKTVAPTECS |
| 0.04 | Example 387 Diastereomer 1 (antibody, human IgG1, lambda, linker-toxophore on lysine NH) heavy: EVQLLESGGGLVQPGGSLRLSCAASGFTFSNAWMSWVRQAPGKGLEWVSYISSSGSTIYYADSVKGRFTISRDNSKNTLYLQMNSLRAEDTAVYYCAREGLWAFDYWGQGTLVTVSS[in this place human IgG1 constant region] light: ESVLTQPPSVSGAPGQRVTISCTGSSSNIGAGYVVHWYQQLPGTAPKLLIYDNNKRPSGVPDRFSGSKSGTSASLAISGLRSEDEADYYCAAWDDRLNGPVFGGGTKLTVLGQPKAAPSVTLFPPSSEELQANKATLVCLISDFYPGAVTVAWKADSSPVKAGVETTTPSKQSNNKYAASSYLSLTPEQWKSHRSYSCQVTHEGSTVEKTVAPTECS |
| 0.03 | Example 373 (antibody, human IgG1, lambda, linker-toxophore on lysine NH) heavy: EVQLLESGGGLVQPGGSLRLSCAASGFTFSNAWMSWVRQAPGKGLEWVSYISSSGSTIYYADSVKGRFTISRDNSKNTLYLQMNSLRAEDTAVYYCAREGLWAFDYWGQGTLVTVSS[in this place human IgG1 constant region] light: ESVLTQPPSVSGAPGQRVTISCTGSSSNIGAGYVVHWYQQLPGTAPKLLIYDNNKRPSGVPDRFSGSKSGTSASLAISGLRSEDEADYYCAAWDDRLNGPVFGGGTKLTVLGQPKAAPSVTLFPPSSEELQANKATLVCLISDFYPGAVTVAWKADSSPVKAGVETTTPSKQSNNKYAASSYLSLTPEQWKSHRSYSCQVTHEGSTVEKTVAPTECS |

More lines, now with the values behind:

| Binder | IC50 (nM) A549: C4.4a [nM] |
| --- | --- |
| Example 267 (antibody, human IgG1, lambda, linker-toxophore on lysine NH) heavy: EVQLLESGGGLVQPGGSLRLSCAASGFTFSNAWMSWVRQAPGKGLEWVSYISSSGSTIYYADSVKGRFTISRDNSKNTLYLQMNSLRAEDTAVYYCAREGLWAFDYWGQGTLVTVSS[in this place human IgG1 constant region] light: ESVLTQPPSVSGAPGQRVTISCTGSSSNIGAGYVVHWYQQLPGTAPKLLIYDNNKRPSGVPDRFSGSKSGTSASLAISGLRSEDEADYYCAAWDDRLNGPVFGGGTKLTVLGQPKAAPSVTLFPPSSEELQANKATLVCLISDFYPGAVTVAWKADSSPVKAGVETTTPSKQSNNKYAASSYLSLTPEQWKSHRSYSCQVTHEGSTVEKTVAPTECS | 0.03 |
| Example 269 (antibody, human IgG1, lambda, linker-toxophore on cysteine S) heavy: EVQLLESGGGLVQPGGSLRLSCAASGFTFSNAWMSWVRQAPGKGLEWVSYISSSGSTIYYADSVKGRFTISRDNSKNTLYLQMNSLRAEDTAVYYCAREGLWAFDYWGQGTLVTVSS[in this place human IgG1 constant region] light: ESVLTQPPSVSGAPGQRVTISCTGSSSNIGAGYVVHWYQQLPGTAPKLLIYDNNKRPSGVPDRFSGSKSGTSASLAISGLRSEDEADYYCAAWDDRLNGPVFGGGTKLTVLGQPKAAPSVTLFPPSSEELQANKATLVCLISDFYPGAVTVAWKADSSPVKAGVETTTPSKQSNNKYAASSYLSLTPEQWKSHRSYSCQVTHEGSTVEKTVAPTECS | > 100 |
| Example 268 (antibody, human IgG1, lambda, linker-toxophore on lysine NH) heavy: EVQLLESGGGLVQPGGSLRLSCAASGFTFSNAWMSWVRQAPGKGLEWVSYISSSGSTIYYADSVKGRFTISRDNSKNTLYLQMNSLRAEDTAVYYCAREGLWAFDYWGQGTLVTVSS[in this place human IgG1 constant region] light: ESVLTQPPSVSGAPGQRVTISCTGSSSNIGAGYVVHWYQQLPGTAPKLLIYDNNKRPSGVPDRFSGSKSGTSASLAISGLRSEDEADYYCAAWDDRLNGPVFGGGTKLTVLGQPKAAPSVTLFPPSSEELQANKATLVCLISDFYPGAVTVAWKADSSPVKAGVETTTPSKQSNNKYAASSYLSLTPEQWKSHRSYSCQVTHEGSTVEKTVAPTECS | 0.05 |
| Example 271 (antibody, human IgG1, lambda, linker-toxophore on cysteine S) heavy: EVQLLESGGGLVQPGGSLRLSCAASGFTFSNAWMSWVRQAPGKGLEWVSYISSSGSTIYYADSVKGRFTISRDNSKNTLYLQMNSLRAEDTAVYYCAREGLWAFDYWGQGTLVTVSS[in this place human IgG1 constant region] light: ESVLTQPPSVSGAPGQRVTISCTGSSSNIGAGYVVHWYQQLPGTAPKLLIYDNNKRPSGVPDRFSGSKSGTSASLAISGLRSEDEADYYCAAWDDRLNGPVFGGGTKLTVLGQPKAAPSVTLFPPSSEELQANKATLVCLISDFYPGAVTVAWKADSSPVKAGVETTTPSKQSNNKYAASSYLSLTPEQWKSHRSYSCQVTHEGSTVEKTVAPTECS | 1 |
| Example 270 (antibody, human IgG1, lambda, linker-toxophore on lysine NH) heavy: EVQLLESGGGLVQPGGSLRLSCAASGFTFSNAWMSWVRQAPGKGLEWVSYISSSGSTIYYADSVKGRFTISRDNSKNTLYLQMNSLRAEDTAVYYCAREGLWAFDYWGQGTLVTVSS[in this place human IgG1 constant region] light: ESVLTQPPSVSGAPGQRVTISCTGSSSNIGAGYVVHWYQQLPGTAPKLLIYDNNKRPSGVPDRFSGSKSGTSASLAISGLRSEDEADYYCAAWDDRLNGPVFGGGTKLTVLGQPKAAPSVTLFPPSSEELQANKATLVCLISDFYPGAVTVAWKADSSPVKAGVETTTPSKQSNNKYAASSYLSLTPEQWKSHRSYSCQVTHEGSTVEKTVAPTECS | 0.03 |
| Example 272 (antibody, human IgG1, lambda, linker-toxophore on cysteine S) heavy: EVQLLESGGGLVQPGGSLRLSCAASGFTFSNAWMSWVRQAPGKGLEWVSYISSSGSTIYYADSVKGRFTISRDNSKNTLYLQMNSLRAEDTAVYYCAREGLWAFDYWGQGTLVTVSS[in this place human IgG1 constant region] light: ESVLTQPPSVSGAPGQRVTISCTGSSSNIGAGYVVHWYQQLPGTAPKLLIYDNNKRPSGVPDRFSGSKSGTSASLAISGLRSEDEADYYCAAWDDRLNGPVFGGGTKLTVLGQPKAAPSVTLFPPSSEELQANKATLVCLISDFYPGAVTVAWKADSSPVKAGVETTTPSKQSNNKYAASSYLSLTPEQWKSHRSYSCQVTHEGSTVEKTVAPTECS | 0.2 |
